From the supplement of paper PMC12067230
Single values of this set are uncertain.
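Further: [psi-pin-] Saccharomyces cerevisiae expressing SupN fusions, induced by 100 µM Cu2SO4, selected 7 d at 30 °C without adenine and uracil, scored by deep sequencing of output versus input.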

Test: amyloid nucleation score relative to library mode (yeast Sup35 reporter selection) (log enrichment difference); higher = more amyloid nucleation; sequences are the first 22 residues of the Bri2 peptide extended by up to 12 random residues
Conditions: random library (experiment): 1;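 active = nucleation score significantly above 0 at FDR 0.05; inactive = not significantly above 0 or absent from output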
Method: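 Random C-terminal extensions of the 22-aa Bri2 peptide by 12 NNK codons; premature stops give shorter extensions. Peptides were fused to the Sup35 nucleation domain in S. cerevisiae [psi-pin-] and selected on -ADE-URA plates for 7 d at 30 °C. The nucleation score is log(output/input), centred to the mode of each of 3 independent libraries (1 input, 3 technical output replicates), with duplicates merged. Sequences absent from the output ('random_non_nuc') were imputed with the library mode value, so they are given as censored (<). Nucleators are scores significantly >0 at FDR 0.05.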
In the case of EASNCFAIRHFENKFAVETLICMVIREETNGLWV, the amyloid nucleation score is reported as “inactive”. In the case of EASNCFAIRHFENKFAVETLICCYCDFLYFIGDR, the amyloid nucleation score is reported as 6.75. For EASNCFAIRHFENKFAVETLICIHLKV, the amyloid nucleation score was “inactive”. EASNCFAIRHFENKFAVETLICWCASIFGPTKAP showed an amyloid nucleation score of 4.28. With EASNCFAIRHFENKFAVETLICMVSRLVKLYREE the amyloid nucleation score was 1.75. With EASNCFAIRHFENKFAVETLICMVKSCSMYHKLS the amyloid nucleation score was “inactive”. In the case of EASNCFAIRHFENKFAVETLICTNDAGMVAGSEG, the amyloid nucleation score is reported as “inactive”. In the case of EASNCFAIRHFENKFAVETLICGGWRRPFLERDL, the amyloid nucleation score is reported as “inactive”. With EASNCFAIRHFENKFAVETLICPCCLVCVVGQMV the amyloid nucleation score was 2.69. EASNCFAIRHFENKFAVETLICRHEVAYSGSVLN showed an amyloid nucleation score of 2.7. For EASNCFAIRHFENKFAVETLICRTRPVLTFIYVW, the amyloid nucleation score was “inactive”. With EASNCFAIRHFENKFAVETLICNSVTTFSAISWT the amyloid nucleation score was 3.47. For EASNCFAIRHFENKFAVETLICTIETC, the amyloid nucleation score was “inactive”. For EASNCFAIRHFENKFAVETLICLMFLPAWSAHYR, the amyloid nucleation score was “inactive”. For EASNCFAIRHFENKFAVETLICVQLVIWYQDCNV, the amyloid nucleation score was “inactive”. With EASNCFAIRHFENKFAVETLICGPHRHGCSPLP the amyloid nucleation score was “inactive”. With EASNCFAIRHFENKFAVETLICWSHC the amyloid nucleation score was 3.52. With EASNCFAIRHFENKFAVETLICETSPPEDRGKMG the amyloid nucleation score was “inactive”. With EASNCFAIRHFENKFAVETLICCHIRFSLVHICF the amyloid nucleation score was “inactive”. With EASNCFAIRHFENKFAVETLICRSAVYRRSMSVC the amyloid nucleation score was “inactive”. In the case of EASNCFAIRHFENKFAVETLICGA, the amyloid nucleation score is reported as “inactive”. Work on EASNCFAIRHFENKFAVETLICVCLWNVIGTTSR yielded an amyloid nucleation score of 5.3. EASNCFAIRHFENKFAVETLICTQLLTQSGHCQR gave an amyloid nucleation score of 4.26. EASNCFAIRHFENKFAVETLICVGTVYQRGSDKV gave an amyloid nucleation score of 7.37. For EASNCFAIRHFENKFAVETLICILCYKEHWNAAR, the amyloid nucleation score was “inactive”. Sequence EASNCFAIRHFENKFAVETLICRNHFGKL has an amyloid nucleation score of -0.28. EASNCFAIRHFENKFAVETLICAEGQCSACRREH gave an amyloid nucleation score of -0.111. In the case of EASNCFAIRHFENKFAVETLICEMRQTAAGGRWV, the amyloid nucleation score is reported as “inactive”. With EASNCFAIRHFENKFAVETLICNQGNPDKHRESP the amyloid nucleation score was “inactive”. With EASNCFAIRHFENKFAVETLICGNHYAHGRADVR the amyloid nucleation score was “inactive”. For EASNCFAIRHFENKFAVETLICALPMVSTQCRGD, the amyloid nucleation score was “inactive”. In the case of EASNCFAIRHFENKFAVETLICVLSSYLRGRQEG, the amyloid nucleation score is reported as “inactive”. In the case of EASNCFAIRHFENKFAVETLICGLKS, the amyloid nucleation score is reported as “inactive”. Sequence EASNCFAIRHFENKFAVETLICLQESCWWHGSRG has an amyloid nucleation score of 4.26. For EASNCFAIRHFENKFAVETLICHVLRQVIGVFP, the amyloid nucleation score was “inactive”. For EASNCFAIRHFENKFAVETLICPVWTIYFRWIGS, the amyloid nucleation score was “inactive”. In the case of EASNCFAIRHFENKFAVETLICAYTDLSVPVA, the amyloid nucleation score is reported as “inactive”. Sequence EASNCFAIRHFENKFAVETLICLKW has an amyloid nucleation score of 3.81. EASNCFAIRHFENKFAVETLICKTRNASLLVRVL showed an amyloid nucleation score of -0.741. EASNCFAIRHFENKFAVETLICGNIQIIVPLRVA showed an amyloid nucleation score of 5.84. With EASNCFAIRHFENKFAVETLICCESTCMSWVLRT the amyloid nucleation score was 6.35. With EASNCFAIRHFENKFAVETLICLLAMDRSRPLVR the amyloid nucleation score was “inactive”. In the case of EASNCFAIRHFENKFAVETLICGLLIFWNCNMVS, the amyloid nucleation score is reported as “inactive”. Work on EASNCFAIRHFENKFAVETLICHLESRRVWSRNT yielded an amyloid nucleation score of 2.45. For EASNCFAIRHFENKFAVETLICLQC, the amyloid nucleation score was 6.91. In the case of EASNCFAIRHFENKFAVETLICDIVGK, the amyloid nucleation score is reported as “inactive”. Work on EASNCFAIRHFENKFAVETLICGEN yielded an amyloid nucleation score of -0.179. With EASNCFAIRHFENKFAVETLICCSYCLRVSCGQL the amyloid nucleation score was 6.77. In the case of EASNCFAIRHFENKFAVETLICVWNEMQSVMSVR, the amyloid nucleation score is reported as “inactive”. With EASNCFAIRHFENKFAVETLICTLSSCYTVKKPV the amyloid nucleation score was 2.37. For EASNCFAIRHFENKFAVETLICRPYKRTWRGAFL, the amyloid nucleation score was “inactive”. In the case of EASNCFAIRHFENKFAVETLICFRLCLGVSRMAK, the amyloid nucleation score is reported as “inactive”. For EASNCFAIRHFENKFAVETLICMRHCKVQRALRQ, the amyloid nucleation score was “inactive”. For EASNCFAIRHFENKFAVETLICYTVWFGTKGIRT, the amyloid nucleation score was “inactive”. EASNCFAIRHFENKFAVETLICYVECLCIRDVAG showed an amyloid nucleation score of 4.79. Sequence EASNCFAIRHFENKFAVETLICGCVCARVNVPVT has an amyloid nucleation score of 5.78. EASNCFAIRHFENKFAVETLICFSVQYSGTPGRG showed an amyloid nucleation score of 6.62.
